For 1 molecule, binding results are on record in publication PMC9462479.

In the test the target is T1, myc-tagged mouse ARMC5 (pcDNA3.1-myc-mArmc5) (mouse) (UniProt Q5EBP3).
T1 sequence: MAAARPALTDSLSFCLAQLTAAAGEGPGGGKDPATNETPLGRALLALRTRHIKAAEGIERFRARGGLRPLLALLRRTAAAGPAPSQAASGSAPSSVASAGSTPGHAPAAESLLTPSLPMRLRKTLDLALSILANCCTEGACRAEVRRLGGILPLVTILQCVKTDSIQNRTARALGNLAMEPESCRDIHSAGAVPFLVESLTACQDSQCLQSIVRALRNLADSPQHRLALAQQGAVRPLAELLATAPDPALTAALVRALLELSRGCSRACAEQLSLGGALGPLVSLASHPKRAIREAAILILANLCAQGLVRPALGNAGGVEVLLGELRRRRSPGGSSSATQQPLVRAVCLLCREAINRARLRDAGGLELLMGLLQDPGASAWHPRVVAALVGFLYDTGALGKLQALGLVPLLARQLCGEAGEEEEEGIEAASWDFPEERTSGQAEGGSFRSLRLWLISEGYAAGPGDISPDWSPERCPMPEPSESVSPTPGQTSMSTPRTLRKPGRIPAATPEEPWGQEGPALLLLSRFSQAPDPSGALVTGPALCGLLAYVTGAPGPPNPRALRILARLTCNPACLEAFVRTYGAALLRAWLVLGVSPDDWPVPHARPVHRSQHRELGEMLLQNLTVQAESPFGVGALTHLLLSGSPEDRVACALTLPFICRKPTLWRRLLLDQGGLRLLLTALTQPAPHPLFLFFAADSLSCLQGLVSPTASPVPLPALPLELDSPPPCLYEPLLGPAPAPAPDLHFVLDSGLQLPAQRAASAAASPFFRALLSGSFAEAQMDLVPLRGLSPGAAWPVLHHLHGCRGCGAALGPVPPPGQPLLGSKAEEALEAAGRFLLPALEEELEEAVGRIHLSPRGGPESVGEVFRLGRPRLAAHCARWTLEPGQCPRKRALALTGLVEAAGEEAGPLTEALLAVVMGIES
Briefly: co-IP; Myc IP: HEK293T cells transfected, lysed in TNE buffer (150 mM NaCl, 1% NP40), anti-myc antibody and Protein G Sepharose, blotted with anti-FLAG.

These are yes or no findings as the source states them, for the method shown. In cells and extracts the contact can be indirect. Some entries that bind do so weakly or less than the wild type. Where a sequence is shown, tags or fusion partners need not be part of it.

B1: FLAG-tagged full-length mouse SREBF1 (pcDNA3.1-FLAG-Srebf1) (protein, UniProt Q9WTN3 1-1134)
chain: MDELAFGEAALEQTLAEMCELDTAVLNDIEDMLQLINNQDSDFPGLFDAPYAGGETGDTGPSSPGANSPESFSSASLASSLEAFLGGPKVTPAPLSPPPSAPAALKMYPSVSPFSPGPGIKEEPVPLTILQPAAPQPSPGTLLPPSFPAPPVQLSPAPVLGYSSLPSGFSGTLPGNTQQPPSSLPLAPAPGVLPTPALHTQVQSLASQQPLPASAAPRTNTVTSQVQQVPVVLQPHFIKADSLLLTAVKTDAGATVKTAGISTLAPGTAVQAGPLQTLVSGGTILATVPLVVDTDKLPIHRLAAGSKALGSAQSRGEKRTAHNAIEKRYRSSINDKIVELKDLVVGTEAKLNKSAVLRKAIDYIRFLQHSNQKLKQENLTLRSAHKSKSLKDLVSACGSGGGTDVSMEGMKPEVVETLTPPPSDAGSPSQSSPLSFGSRASSSGGSDSEPDSPAFEDSQVKAQRLPSHSRGMLDRSRLALCVLAFLCLTCNPLASLFGWGILTPSDATGTHRSSGRSMLEAESRDGSNWTQWLLPPLVWLANGLLVLACLALLFVYGEPVTRPHSGPAVHFWRHRKQADLDLARGDFPQAAQQLWLALQALGRPLPTSNLDLACSLLWNLIRHLLQRLWVGRWLAGQAGGLLRDRGLRKDARASARDAAVVYHKLHQLHAMGKYTGGHLAASNLALSALNLAECAGDAISMATLAEIYVAAALRVKTSLPRALHFLTRFFLSSARQACLAQSGSVPLAMQWLCHPVGHRFFVDGDWAVHGAPPESLYSVAGNPVDPLAQVTRLFREHLLERALNCIAQPSPGAADGDREFSDALGYLQLLNSCSDAAGAPACSFSVSSSMAATTGPDPVAKWWASLTAVVIHWLRRDEEAAERLYPLVEHIPQVLQDTERPLPRAALYSFKAARALLDHRKVESSPASLAICEKASGYLRDSLASTPTGSSIDKAMQLLLCDLLLVARTSLWQRQQSPASVQVAHGTSNGPQASALELRGFQHDLSSLRRLAQSFRPAMRRVFLHEATARLMAGASPARTHQLLDRSLRRRAGSSGKGGTTAELEPRPTWREHTEALLLASCYLPPAFLSAPGQRMSMLAEAARTVEKLGDHRLLLDCQQMLLRLGGGTTVTSS
As for B1, the binding result is reported as “binds”.
